From the RNAGym collection of RNA variant scans (doi:10.1073/pnas.2313332121)
This sample is rich in variants without activity.

B1: TPR 5TU (parent)
chain: GGAUCUUCUCGAUCUAACAAAAAAGACAAAUCUGCCACAAAGCUUGAGAGCAUCUUCGGAUGCAGAGGCGGCAGCCUUCGGUGGCGCGAUAGCGCCAACGUUCUCAACUAUGACACGCAAAACGCGUGCUCCGUUGAAUGGAGUUUAUCAUG

Variants of: B1
Experiment: polymerase ribozyme fitness, log enrichment relative to wild type (log ratio); higher = more active; in vitro selection for triplet polymerase activity
Outline: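 Mutant libraries of each subunit of a heterodimeric triplet polymerase ribozyme were built by PCR and transcribed. Each library went through one round of in vitro selection in triplicate: annealing with biotinylated primer, partner subunit and triplets, frozen incubation at −7 °C, gel excision of extended constructs, streptavidin-bead capture and RT-PCR. Input and output libraries were Illumina-sequenced; only genotypes with ≥10 input reads and ≥1 read per output were kept. Fitness is log2(genotype enrichment/wild-type enrichment), using inverse-variance-weighted replicate averages.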

Variant | polymerase ribozyme fitness (log ratio)
C18U G133A | ≤ -4.2
C18U G140C | -4.17
C18U U31C U56G A138U G140A | -4
C18U U31G A37C C54U A91C U134C U146C | ≤ -4.2
C18U U31G U53A G81C G83A C105G U135G | ≤ -4.2
C18U U44A G50A A52U G74A A91U C105G A106G C129G | ≤ -4.2
C18U U45A U56A G70A C85U | ≤ -4.2
C18U U53A G74C A107U U135C G140C | ≤ -4.2
C18U U53G C54A A91G A110G C114G | ≤ -4.2
C18U U55A U56A C63G A66C C96G C132U | ≤ -4.2
C18U U77C G83A C99G A120C | ≤ -4.2
C18U U78G C87G C99G A106G C118A | ≤ -4.2
A19C A20C A28U C75G C93U | ≤ -4.2
A19C A20C A40G U55C G71U G84A A138U U139A | ≤ -4.2
A19C A20C U148A | -3.05
A19C A20U A28U A30U A97G A113U A115G | ≤ -4.2
A19C A20U C85A A91U C96G G124A U144A | ≤ -4.2
A19C A20U U61C C76A U82C A91U U130G U146C | ≤ -4.2
A19C A21C A26C U44A C57A U61A G68A G86A C118U | ≤ -4.2
A19C A21C A26U A52G U78A G92A G152C | ≤ -4.2
A19C A21U C27G A52G G70A C85A C87U C103U C108A A138U | ≤ -4.2

Variant | polymerase ribozyme fitness (log ratio)
A19C A21U C43A C85U | ≤ -4.2
A19C A21U C43A C96G A107U U148A | ≤ -4.2
A19C A21U U55A C76G G88U G128U | ≤ -4.2
A19C A21U U101A | 0.427
A19C A22C U55G G92U C149G | ≤ -4.2
A19C A22G A24U G88C | ≤ -4.2
A19C A22G A29U U44C | ≤ -4.2
A19C A22G U31G C38U A107U G117A | -4.16
A19C A22U A89C C96G A97U C99U U104G A115C | ≤ -4.2
A19C A22U C35A A106G | -3.28
A19C A22U G34A G50A U56A G59A C93A C123G U127C A138G U144A | ≤ -4.2
A19C A23C A60G C72G C116U U127G G143U | ≤ -4.2
A19C A23C U53A C69U C75U G80A | ≤ -4.2
A19C A23G A24G U31A C35A A40U G48A C79A G140A | ≤ -4.2
A19C A23G G80C C87G G88A G136A | ≤ -4.2
A19C A23G U31A C38U C51G C85U | ≤ -4.2
A19C A23U A37U C43U A52U G140C | ≤ -4.2
A19C A24G C36U C57A U111G A121G | ≤ -4.2
A19C A24G C72A C125A | ≤ -4.2
A19C A24U A26C G48C U61G G68U U77G G141A C149G | ≤ -4.2
A19C A24U A37U C54U C76U C93G A113U | ≤ -4.2

Variant | polymerase ribozyme fitness (log ratio)
A19C A26C A29U C72A G88A U144C C149A | ≤ -4.2
A19C A26C C38A C43G G74U G80C A121U U127G G136A A138C | ≤ -4.2
A19C A28C C93G U102G | ≤ -4.2
A19C A28C U135G | ≤ -4.2
A19C A28U C75A C85U G92U | ≤ -4.2
A19C A28U G46C C63A G71A U101C C114U A122U G143C | ≤ -4.2
A19C A28U U55G U78C A91U | ≤ -4.2
A19C A29C C99G | ≤ -4.2
A19C A29C U33G C87G C108U U135A U148A | ≤ -4.2
A19C A29U A49G U55A A66G C76U C79U G83U U90G A110U G143C | ≤ -4.2
A19C A29U C36G A91C U109C A150C | ≤ -4.2
A19C A29U C43A A52C G94C | ≤ -4.2
A19C A29U U56A G59A A73G C76A U78A G83U G141C | ≤ -4.2
A19C A30C U44A C79A G94C C96A A113G C116A A120C C129A | ≤ -4.2
A19C A30G C72U U82A C85U A91U | ≤ -4.2
A19C A30U A52G A107U C116G C118G A142C A150U | ≤ -4.2
A19C A30U G50A A73C G80U G86A C118A U145G | ≤ -4.2
A19C A39G A47C U127C | ≤ -4.2
A19C A40G C75G G88C | ≤ -4.2
A19C A40U G50A U77C C93U U104G | ≤ -4.2
A19C A41C G70U G84A U101G G126C U135C | ≤ -4.2

Variant | polymerase ribozyme fitness (log ratio)
A19C A41G C131A A138U | ≤ -4.2
A19C A41U G46C G67U U78G G84U C108U | ≤ -4.2
A19C A47C A97U C99G U109G | ≤ -4.2
A19C A47C G86C U90G | ≤ -4.2
A19C A49C G50C G58A G74U C85U C114A C116U | ≤ -4.2
A19C A49G A66C C105U U144C | ≤ -4.2
A19C A52G G92C C96A A147C | -3.53
A19C A52G G92C C96A U151G | ≤ -4.2
A19C A52U | -1.43
A19C A52U C87G U90A C96G C103A | ≤ -4.2
A19C A60G C96U | 0.412
A19C A64U C79A C93U C99A | ≤ -4.2
A19C A73U C87U U90G C99U G126U C131U A142G | ≤ -4.2
A19C A91U G152C | ≤ -4.2
A19C A107G | -3.75
A19C A107U U135C | ≤ -4.2
A19C A110C | ≤ -4.2
A19C A150G | -0.495
A19C C27A C125U U148G | ≤ -4.2
A19C C27A G81C G117C A121G C149G | ≤ -4.2
